Reference: PubChem BioAssay AID252 (DTP/NCI, 2004)
Inconclusive results and toxic doses are left out. Some entries of the source have several records that differ or are many. Only these are listed. An entry can have further records. The values listed for one entry are repeated measurements (runs, samples, wells, individuals or studies).

Tested on: BDF1 mice, intracerebral L1210 leukemia, survival T/C
Test: NCI In Vivo Anticancer Drug Screen. Data for tumor model L1210 Leukemia (intracerebral) in B6D2F1 (BDF1) mice
Conditions: endpoint: mean survival time, higher = longer survival
Experimental: The antitumor activity of compounds was measured in mice bearing transplantable tumors. Survival or tumor size were measured and the results are expressed as the measurement made in the treated group (T) divided by the measurement made in the vehicle treated control group (C). The tumor model used in this assay is L1210 Leukemia (intracerebral) in B6D2F1 (BDF1) mice

CCCCCCCCCCCCCCCC(=O)OCC1OC(n2ccc(N)nc2=O)C(O)C1O (stereo not drawn)
T/C (dose: 50.0 mg/kg/injection, schedule: Q01DX001 (ip), vehicle: other): 115 % of control and 161 % of control

Cc1c(C)c(NC(=O)N(CCCl)N=O)c(C)c(C)c1NC(=O)N(CCCl)N=O
T/C (dose: 125.0 mg/kg/injection, schedule: Q01DX001 (ip), vehicle: other): 117 % of control and 150 % of control
T/C (dose: 750.0 mg/kg/injection, schedule: Q01DX001 (ip), vehicle: other): 115 % of control and 167 % of control

N[C@@H](Cc1ccc(N(CCCl)CCCl)cc1)C(=O)O
T/C (dose: 1.7 mg/kg/injection, schedule: Q01DX001 (ip), vehicle: carboxymethylcellulose (CMC)): 103 % of control and 165 % of control
T/C (dose: 7.0 mg/kg/injection, schedule: Q01DX001 (ip), vehicle: carboxymethylcellulose (CMC)): 120 % of control and 159 % of control

O=P1(N(CCCl)CCCl)NCCCO1 (stereo not drawn)
T/C (dose: 100.0 mg/kg/injection, schedule: Q01DX001 (ip), vehicle: DMSO): 115 % of control, 122 % of control, 153 % of control
T/C (dose: 400.0 mg/kg/injection, schedule: Q01DX001 (ip), vehicle: DMSO): 71 % of control and 158 % of control

C=CC(CN1CC1)OC(C)=O (stereo not drawn)
T/C (dose: 10.0 mg/kg/injection, schedule: Q01DX Z (ip), vehicle: saline): 114 % of control and 150 % of control
T/C (dose: 15.0 mg/kg/injection, schedule: Q01DX Z (ip), vehicle: saline): 101 % of control and 176 % of control

O=NN(CCCl)C(=O)N[C@H]1CCCC[C@H]1Cl
T/C (dose: 26.0 mg/kg/injection, schedule: Q01DX001 (ip), vehicle: carboxymethylcellulose (CMC)): 112 % of control, 117 % of control, 153 % of control

O=NN(CCCl)C(=O)NC1CSCSC1
T/C (dose: 4.0 mg/kg/injection, schedule: Q01DX001 (ip), vehicle: other): 114 % of control and 162 % of control
T/C (dose: 8.0 mg/kg/injection, schedule: Q01DX001 (ip), vehicle: other): 121 % of control and 161 % of control

CC1CCC(NC(=O)N(CCCl)N=O)CC1 (stereo not drawn)
T/C (dose: 12.0 mg/kg/injection, schedule: Q01DX001 (oral), vehicle: other): 124 % of control and 156 % of control
